Out of some 220,000 compounds screened, about 16,000 (7.3%) were called active. This list was built around the results that the source calls inconclusive (neither active nor inactive); the mix of calls is not that of the screen. Calls come from the whole dose curve; as a rule, active = well fitted inhibition curve with a large enough effect (not every such curve was filed as active); inconclusive = small, poorly fitted or top-dose-only effect, or another doubt; inactive = no such curve, though single readings can be large or run the other way. Potencies of inconclusive entries are left out as doubtful fits.
Target: Aldehyde dehydrogenase 1A1 (Homo sapiens) (UniProt P00352)
Assay: qHTS Assay for Inhibitors of Aldehyde Dehydrogenase 1 (ALDH1A1);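 for activity, negative = inhibition: plate controls were no enzyme wells and a reference inhibitor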
Conditions: Purified ALDH1A1, NADH fluorescence, propionaldehyde substrate; series mostly up to 75.3 µM; activity, negative = inhibition: at the top concentration
Potency is the fitted concentration of half-maximal effect; tags give direction and shape of the fitted curve.

UniProt P00352, sequence (P00352 whole entry, looked up): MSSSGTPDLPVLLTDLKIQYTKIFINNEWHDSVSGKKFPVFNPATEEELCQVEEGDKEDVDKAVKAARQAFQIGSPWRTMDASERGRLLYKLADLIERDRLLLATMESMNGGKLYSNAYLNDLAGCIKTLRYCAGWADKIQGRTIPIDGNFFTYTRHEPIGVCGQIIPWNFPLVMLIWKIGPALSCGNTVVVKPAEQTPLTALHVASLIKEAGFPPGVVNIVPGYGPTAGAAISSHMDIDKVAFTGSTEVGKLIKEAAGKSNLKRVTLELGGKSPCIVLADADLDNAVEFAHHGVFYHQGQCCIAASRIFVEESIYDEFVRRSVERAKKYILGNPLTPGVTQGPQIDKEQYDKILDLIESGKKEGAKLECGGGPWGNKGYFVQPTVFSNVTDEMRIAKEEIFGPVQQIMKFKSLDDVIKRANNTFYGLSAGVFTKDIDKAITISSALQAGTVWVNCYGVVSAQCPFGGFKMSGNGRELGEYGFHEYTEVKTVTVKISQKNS

SMILES | activity, negative = inhibition | Potency
Cc1cc(C)nc(SCc2nnc(SCC#N)n2-c2cccc(Cl)c2)n1 | inactive: 9.36% | –
CCOc1ccc(NC(=O)CSc2nccn2C)cc1 | inactive: 4.34% | –
CCNc1nc(NCC)n2c(SCC(=O)NC34CC5CC(CC(C5)C3)C4)nnc2n1 | inactive: -3.18% | –
COc1ccc(C(=O)N(Cc2ccccc2)Cc2cc3cc4c(cc3[nH]c2=O)OCCO4)cc1 | – | inconclusive [inhibitor, partial curve]
O=C(c1ccco1)N1CCN(C(c2ccc(F)cc2)c2nnnn2Cc2cccs2)CC1 (centres undefined) | – | inconclusive [inhibitor, single point]
COc1cc(C(=O)N2CCN(S(=O)(=O)c3cccs3)CC2)cc(OC)c1C | – | inconclusive [inhibitor, single point]
C=CCn1c(-c2ccccc2OCC)n[nH]c1=S | inactive: -15% | –
CN(C(=O)CSc1nc(C2CC2)nc2ccccc12)c1nc(-c2ccccc2)cs1 | – | inconclusive [inhibitor, single point]
Cn1c(=O)[nH]c(=O)c2c1nc(N1CCCC1)n2CCCSc1nc2ccccc2o1 | inactive: -2.74% | –
CC(C)(C)OC(=O)N1CCC[C@H]1c1nnc(SC/C=C/c2ccccc2)o1 | – | active: 22.4 µM
COc1ccc(Cc2nnc(SCC(=O)N3CCCCC3)o2)cc1 | – | inconclusive [inhibitor, single point]
O=C(COc1nncc2ccccc12)Nc1ccc(F)c(F)c1 | inactive: 3.47% | –
COc1cc(C)c(NC(=S)Nc2cccc(Cl)c2)cc1OC | – | inconclusive [inhibitor, single point]
Cc1ccc(-n2[nH]c(C)c(C=Nc3ccc4[nH]c(=O)[nH]c4c3)c2=O)cc1C | – | inconclusive [inhibitor, single point]
CCOC(=O)c1sc(NC(=O)c2ccccc2F)c(C(N)=O)c1C | – | inconclusive [inhibitor, partial curve]
CCCCOC(=O)C(C)Nc1n[nH]c(=S)[nH]c1=O (centres undefined) | – | inconclusive [inhibitor, single point]
O=[N+]([O-])c1ccc(OCCN2CCCCCC2)cc1 | – | inconclusive [inhibitor, single point]
N#CC(C#N)=C1C=CC=CN1/C(=C\c1ccco1)C(=O)c1ccc(-c2ccccc2)cc1 | inactive: -15.1% | –
CCOC(=O)c1c(CC(C)C)csc1/N=C/C1C(=O)CC(C)(C)CC1=O | – | active: 6.31 µM
O=C(NC1CCCc2ccccc21)C1CCN(c2c3c(nc4ncnn24)CCC3)CC1 (centres undefined) | inactive: 11.9% | –
CC(C)CCNC(=O)CSc1nc2ccccc2s1 | – | active: 17.8 µM
COc1cccc(OC)c1C(=O)NC1C(=O)N2C1SC(C)(C)C2C(=O)O (centres undefined) | inactive: -10.9% | –
CCCNC(=O)c1c(Cl)cnn1-c1ccc(C)cc1 | inactive: 0.157% | –
COc1cc(/C=N/NC(=O)COc2cc(C)cc(C)c2)ccc1OS(=O)(=O)c1ccc(C)cc1 | – | inconclusive [inhibitor, full curve]
COC(=O)c1sccc1NC(=O)c1cc(-c2ccc(C)cc2)nc2ccccc12 | inactive: 4.97% | –

SMILES | activity, negative = inhibition | Potency
O=C1CN(C(=O)c2ccc(Br)o2)C(c2ccccc2)c2cc(Br)ccc2N1 (centres undefined) | – | active: 22.4 µM
CC(c1ccco1)N(C(=O)c1ccc(F)cc1)c1ccccn1 (centres undefined) | – | inconclusive [inhibitor, single point]
COc1ccc(N(C2=NCCCS2)S(=O)(=O)c2ccc(C(C)(C)C)cc2)cc1 | – | active: 0.794 µM
CO[C@H]1COC(=O)C/C=C\[C@H](C)[C@@H](NS(=O)(=O)c2ccc(C)cc2)COC(=O)CCC[C@@H]1C | – | inconclusive [inhibitor, single point]
CCN(CC)S(=O)(=O)c1cccc(-c2nn(-c3ccccc3)cc2/C=C(\C#N)C(=O)NCc2ccco2)c1 | – | inconclusive [inhibitor, partial curve]
COCCNC(=S)N/N=C(\C)c1ccccc1O | inactive: -3.72% | –
Cc1ccccc1CN(C)CC(=O)NC(C)CCc1ccccc1 (centres undefined) | – | inconclusive [inhibitor, single point]
CCOC(=O)c1c(NC(=O)c2c(C(=O)O)cccc2[N+](=O)[O-])sc(C)c1C | – | inconclusive [inhibitor, single point]
O=C(O)/C(=C\c1ccc(O)cc1)c1cccc2ccccc12 | inactive: 7.21% [at 13.5 µM] | –
O=C(C/C=N\OCc1ccc([N+](=O)[O-])cc1)Nc1ccccc1 | – | inconclusive [inhibitor, single point]
O=C(O)c1c[nH]ccc1=O | – | inconclusive [inhibitor, single point]
CC(SCC(=O)Nc1ccc(S(=O)(=O)N2CCCCC2)cc1)C(=O)O (centres undefined) | – | active: 28.2 µM
O=C(Nc1nnc(SCc2ccc(F)cc2)s1)c1ccc2c(c1)C(=O)N(c1ccccc1Cl)C2=O | – | active: 1.26 µM
Cc1cc(C)c(OCCCCN2CCC(C)CC2)c(Br)c1 | – | inconclusive [inhibitor, single point]
CCC(C(=O)NC1CCCC1)N(Cc1ccc2c(c1)OCO2)C(=O)c1snc(C(N)=O)c1N (centres undefined) | – | inconclusive [inhibitor, partial curve]
CC(=O)c1cccc(NC(=O)CC2S/C(=N/N=C/c3ccccc3)NC2=O)c1 (centres undefined) | inactive: -4.56% | –
O=C(NCc1ccc2c(c1)OCO2)C1CCC(CNc2c(N3CCCC3)c(=O)c2=O)CC1 (centres undefined) | inactive: 13.9% | –
CC/C(=C\C1CCCCC1)C(NP(=O)(c1ccccc1)c1ccccc1)c1ccccc1 (centres undefined) | – | inconclusive [inhibitor, single point]
CCOc1ccc(Nc2nc(C)cc(C)c2C#N)cc1 | – | inconclusive [inhibitor, single point]
COc1ccc(C(=O)Sc2ccc(C)cc2)cc1OC | – | inconclusive [inhibitor, single point]
COc1ccc(CCC(=O)NCc2cn3ccc(C)cc3n2)cc1 | – | inconclusive [inhibitor, single point]
NC(=O)c1c(Nc2nc3c(F)cccc3s2)sc2c1CCCC2 | – | inconclusive [inhibitor, partial curve]
Cc1ccc(-c2nc(-c3nccc4ccccc34)oc2-c2ccccc2)cc1 | – | inconclusive [inhibitor, partial curve]
CSc1oc(-c2ccc(F)cc2)nc1S(=O)(=O)c1ccccc1 | – | active: 28.2 µM
COC(=O)C1=C(C)N=C2SC(C)C(=O)N2C1c1ccc(C(=O)OC)cc1 (centres undefined) | – | inconclusive [inhibitor, partial curve]

SMILES | activity, negative = inhibition | Potency
COC(=O)CSc1nnc(CNS(=O)(=O)c2ccc(C)cc2)n1C | inactive: 5.14% | –
N#Cc1nc(-c2ccccc2F)oc1NCCc1ccccc1 | – | inconclusive [inhibitor, partial curve]
c1ccc(-c2csc(Nc3ncccn3)n2)cc1 | inactive: 8.05% | –
COc1ccc(-c2nnc3ccc(SCC(=O)NCc4ccco4)nn23)cc1OC | inactive: -50% | –
O=C(NC(NC1CCS(=O)(=O)C1)C(=O)c1ccccc1)c1ccc(Cl)cc1 (centres undefined) | – | inconclusive [inhibitor, single point]
CCCN1CNC(=S)N(c2cc(C)ccc2C)C1 | inactive: -2.93% | –
O=Cc1cccn1-c1nccc(-c2ccco2)n1 | – | active: 22.4 µM
COc1cccc(OC)c1-c1nn2c(-c3ccco3)nnc2s1 | – | inconclusive [inhibitor, single point]
Cc1sc(NC(=O)C2CCCO2)c(C(N)=O)c1C (centres undefined) | – | active: 11.2 µM
O=C(CCc1ccccc1)N1CCN(c2ccc([N+](=O)[O-])cc2)CC1 | – | active: 2.24 µM
COc1ccc(/C=C/C(=O)OCC(=O)c2ccc3c(c2)NC(=O)CO3)cc1 | inactive: -1% | –
CCN(CC)c1nc(Nc2ccccc2)nc(Oc2ccc(=O)n(C)n2)n1 | – | inconclusive [inhibitor, single point]
CC(C)(C)C1=Nn2c(nnc2-c2ccccn2)SC1 | – | inconclusive [inhibitor, single point]
CN(C)CCCN(C(=O)c1ccc2c(c1)CCCC2)c1nc2ccc(F)cc2s1 | inactive: -2.84% | –
CCN1C(=O)/C(=C\N2CCN(c3ccccc3)CC2)SC1=S | – | inconclusive [inhibitor, partial curve]
COC(=O)C/C=C\[C@@H](C)[C@@H](/C=N\OC[C@@H]1O[C@H](c2ccccc2)C=C[C@@H]1Oc1ccc(OC)cc1)NS(=O)(=O)c1ccc(C)cc1 | inactive: -0.25% [at 13.5 µM] | –
O=C(O)c1cc(S(=O)(=O)Nc2cccc(Cl)c2)ccc1O | – | inconclusive [inhibitor, single point]
COc1cc(/C=C(\C#N)C(=O)NC2CCCCC2)ccc1OCc1ccc(C(=O)O)cc1 | – | active: 14.1 µM
Cc1cc(NC(=O)c2ccoc2C)no1 | – | inconclusive [inhibitor, single point]
Cc1ccnc(SCc2cn3c(C)cc(C)nc3n2)n1 | – | inconclusive [inhibitor, partial curve]
CC12CCC(C(=O)N3CCN(Cc4ccccc4)CC3)(OC1=O)C2(C)C (centres undefined) | – | inconclusive [inhibitor, partial curve, poor fit]
CN(C)c1ccc(N=Nc2ccccc2C(=O)OCC(=O)N(C)c2ccccc2)cc1 | – | inconclusive [inhibitor, full curve]
Cc1ccccc1NC(=O)c1ccccc1O | – | inconclusive [inhibitor, single point]
COc1ccc(S(=O)(=O)NCc2cn3c(C)csc3n2)cc1F | – | inconclusive [inhibitor, partial curve]
